Some of the results follow.
target: T1, OsWOX13 (Oryza sativa, UniProt Q5QMM3 1-267); assay: protein-binding microarray (RPBM); PBS, 2% BSA, 51.3 ng/ul salmon testes DNA, 50 uM zinc acetate, 200 nM TF, 25 C, 1 h; high values mean tight binding; conditions: protein: recombinant; tags: N-terminal polyhistidine and DsRed monomer fusion (pET32a); label: CyDye5-dUTP incorporated in the synthesized complementary strand; 3' TTTTT single-stranded linker to array surface; dsDNA, one strand shown
T1 sequence: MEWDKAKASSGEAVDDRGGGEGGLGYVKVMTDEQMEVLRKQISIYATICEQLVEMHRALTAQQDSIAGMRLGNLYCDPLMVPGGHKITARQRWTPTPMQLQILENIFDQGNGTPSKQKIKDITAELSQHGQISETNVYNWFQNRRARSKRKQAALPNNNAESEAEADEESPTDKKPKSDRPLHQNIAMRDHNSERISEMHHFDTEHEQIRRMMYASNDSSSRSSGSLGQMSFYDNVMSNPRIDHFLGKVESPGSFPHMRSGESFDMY
Method in brief: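 Transcription factors were each fused at the N-terminus to a polyhistidine tag plus DsRed and expressed in E. coli BL21-CodonPlus before Ni–NTA purification. Binding to a double-stranded custom Agilent array was carried out with 200 nM protein at 25 °C for 1 h in PBS, 2% BSA, salmon testes DNA and 50 µM zinc acetate. The binding signal is per-feature fluorescence intensity, in arbitrary units, on an Axon 4000B scanner.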

In order of rising binding signal:
1. CCCTTGATGAACTATAGACCTGTAGAGAGATCAGAATTCACGGAGTCACCTAGTGCAG  3270 fluorescence intensity (a.u.)
2. ATGACTTAAAAGAATACAGATTGCCAACATGTATACCCGTCGGAGTCACCTAGTGCAG  3460 fluorescence intensity (a.u.)
3. GCAGGTGCTTAATTAACATGTATTAAACTCGGAGACTTGTCGGAGTCACCTAGTGCAG  3910 fluorescence intensity (a.u.)
4. AAGAAATAATTTTAAAATGGTGGTGCCATATGGGCCCCAACGGAGTCACCTAGTGCAG  3940 fluorescence intensity (a.u.)
5. ACCCACAGCCCACCAATCACAGCACTCCTTTGTATTCTCTCGGAGTCACCTAGTGCAG  3960 fluorescence intensity (a.u.)
6. TAAGTTGGATTGAATTGGCTTGTCTACACGTGTCCTTTCCCGGAGTCACCTAGTGCAG  4070 fluorescence intensity (a.u.)
7. AACCATTTATTGACTCGATGCATTGGGATAAGTCTAACCGCGGAGTCACCTAGTGCAG  4310 fluorescence intensity (a.u.)
8. AATCATTTAAAACATTGATTTTATTTGACGATAAAACTAGCGGAGTCACCTAGTGCAG  4690 fluorescence intensity (a.u.)
9. AAAATGGTCAAATATTAGATTGGACGGTATAAAATTACACCGGAGTCACCTAGTGCAG  4720 fluorescence intensity (a.u.)
10. GGAATCTGTAATTTGTTTTCTTATTAGTCTACGTTTAATCCGGAGTCACCTAGTGCAG  4790 fluorescence intensity (a.u.)
11. AAGATTGCACCATTCATTCATCAATAGATAGCAGATTAGCCGGAGTCACCTAGTGCAG  5130 fluorescence intensity (a.u.)
12. ACACACTAACTAATCAACAACGATAATAATATCCCATTCCCGGAGTCACCTAGTGCAG  5150 fluorescence intensity (a.u.)
13. ATCAACCTATCCTGATTTAAATCGTAGATTTGATATGAGTCGGAGTCACCTAGTGCAG  5570 fluorescence intensity (a.u.)
14. TGAACTTAATTTCTACTAGAAATTTCTGGAAAAGACCTGCCGGAGTCACCTAGTGCAG  5790 fluorescence intensity (a.u.)
15. GTGATTAATACTAGGAGGGAGGGTATGATTATGAAACGGACGGAGTCACCTAGTGCAG  6160 fluorescence intensity (a.u.)
16. CATACTCTTAGCTCATTTAAATTGACATTTGCACGATGATCGGAGTCACCTAGTGCAG  6160 fluorescence intensity (a.u.)
17. TATTGATGGAGAAGAGGATAGGAAATGGAGGTTTTGGCTTCGGAGTCACCTAGTGCAG  6540 fluorescence intensity (a.u.)
18. TATTGATCAAATTTGGCAGCAAACTAAATATAGACATTTTCGGAGTCACCTAGTGCAG  6750 fluorescence intensity (a.u.)
19. ACTAATGTAATCGATCAACTTGTAAATCATATATCTAGATCGGAGTCACCTAGTGCAG  6900 fluorescence intensity (a.u.)
20. AATTCTCCTCAATAATTAATGGTTATTAGTAAGACACAGACGGAGTCACCTAGTGCAG  7010 fluorescence intensity (a.u.)
21. ATTTGCATTTACGGGTAATTATTATTTTAGCGATGAGTGACGGAGTCACCTAGTGCAG  7200 fluorescence intensity (a.u.)
22. AGTCCCTGGATCCAATCACCACCTTAGGATTATTATAATCCGGAGTCACCTAGTGCAG  7270 fluorescence intensity (a.u.)
23. CTAGATGAAATAATTTAGTTCAACGTATACAACAAACGATCGGAGTCACCTAGTGCAG  8190 fluorescence intensity (a.u.)
24. GGCCAGTAATTAACCATATTTATCATTTAAACTACTCAGTCGGAGTCACCTAGTGCAG  9040 fluorescence intensity (a.u.)
25. CCCTGTCAGATTTCCATCAATCTAGCTCTCTTGTGCCTGACGGAGTCACCTAGTGCAG  10200 fluorescence intensity (a.u.)
26. ACATAAGTTAATTTTGACTACGATTATTGTTTAGGAAAGTCGGAGTCACCTAGTGCAG  11300 fluorescence intensity (a.u.)
27. GAAGAGGATTGGATTGATTCTATATCGTGCAGGGTTCATTCGGAGTCACCTAGTGCAG  11500 fluorescence intensity (a.u.)
28. TTAAATATAGTTAATTAAACTAGCTAGCTCCTCCGATCCTCGGAGTCACCTAGTGCAG  12800 fluorescence intensity (a.u.)
29. CACAAGAAATGGTGATTAGTGAATTCAAAATTAACCTGTCCGGAGTCACCTAGTGCAG  13400 fluorescence intensity (a.u.)
30. AGTAATTATTAATTCTTTTCCTATCATTTAATTCATTGTTCGGAGTCACCTAGTGCAG  13600 fluorescence intensity (a.u.)
31. TATGTTATAATATCATGATTTAAACATAATTAGCGTACTACGGAGTCACCTAGTGCAG  14000 fluorescence intensity (a.u.)
32. CATGACAAATTAACAAACAAACTTGCATGACCAGGTTGGACGGAGTCACCTAGTGCAG  18500 fluorescence intensity (a.u.)
33. ACTAATTATAAAAGAATTTTATATAAGACGGAACGGTCAACGGAGTCACCTAGTGCAG  19800 fluorescence intensity (a.u.)
34. ATAATTTGCAGTATTATATTGACAAATGGGCCCACTTGTGCGGAGTCACCTAGTGCAG  19900 fluorescence intensity (a.u.)
35. CACCAATCACTGGGCCCGGCCGTACGTATCTCTTGTTCTCCGGAGTCACCTAGTGCAG  20900 fluorescence intensity (a.u.)
36. AATTTATTGAGCCTAATTAATTCATAATTAGTCTATGTGACGGAGTCACCTAGTGCAG  25900 fluorescence intensity (a.u.)
37. CAAATTTATTAATCCTAATTAATCCATAATTAGTAAATATCGGAGTCACCTAGTGCAG  28600 fluorescence intensity (a.u.)
38. AGCGCTAATTAGGTCATTTGCGGACTAATCACCCCGGGTGCGGAGTCACCTAGTGCAG  33100 fluorescence intensity (a.u.)
39. ATACTGTCATCAATTGATTACTCTGACCGTCGATCACACACGGAGTCACCTAGTGCAG  34100 fluorescence intensity (a.u.)
40. ATGTAATTAGTTACTAATAACTTCAATTGGCATCATGGATCGGAGTCACCTAGTGCAG  35500 fluorescence intensity (a.u.)
41. GTTTTGATTAGTTAAGGGACGCCGGATATCTGGTTTTGCACGGAGTCACCTAGTGCAG  44000 fluorescence intensity (a.u.)
42. CTAATTGGCAAATTAAACAAAGAAGAAGAGGAAAGGAAGGCGGAGTCACCTAGTGCAG  44700 fluorescence intensity (a.u.)
